{
  "source": "PubChem BioAssay AID651820",
  "about": "(National Center for Advancing Translational Sciences (NCATS), 2012)",
  "note": "Out of some 340,000 compounds screened, about 12,000 (3.5%) were called active. Inconclusive means that the source gave no clear call. Such entries were picked first, then a sample of the others. Calls follow the shape of the dose curve; as a rule, active = well fitted inhibition curve with a large enough effect; inconclusive = small, poorly fitted or top-dose-only effect, or another doubt; inactive = no such curve, though single readings can be large or run the other way. Potencies of inconclusive entries are left out as doubtful fits. Potency is read from the fitted curve at half-maximal effect; tags tell the direction and shape of the fitted curve.",
  "data": [
    {"assay": "qHTS Assay for Inhibitors of Hepatitis C Virus (HCV)", "conditions": "Huh7.5.1 HCVcc-Cre (HCVcc is cell-culture hepatitis C virus) infection, luciferase reporter, 44 h; series mostly up to 41.8 µM", "procedure,_shortened": "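Infectious HCV cell culture screen: compound-treated cells (1,000/well, pre-plated 4 h) are infected with HCVcc-Cre at roughly 0.5 moi and grown 44 h. Infection is quantified by luciferase signal after 15 min substrate incubation at room temperature.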", "values": [
      {"smiles": "CCN(CC1COc2ccccc2O1)C(=O)c1ccc(Cl)c(S(=O)(=O)N2CC(C)OC(C)C2)c1", "note": "(stereo not given)", "Potency": "inconclusive [inhibitor, single point]"},
      {"smiles": "CN1CCCN(C(=O)/C=C/c2ccc(Cl)cc2Cl)CC1", "Potency": "inconclusive [inhibitor, single point]"},
      {"smiles": "COc1cccc(Sc2ccccc2/C=N/NC(N)=O)c1", "Potency": "inconclusive [inhibitor, full curve, poor fit]"},
      {"smiles": "CCOc1ccc(CC(=O)Nc2c(C(=O)Nc3ccccc3)oc3ccccc23)cc1OCC", "Potency": "inactive"},
      {"smiles": "N#CCCn1cc(C=C(C#N)C#N)c(-c2ccc(Cl)cc2)n1", "Potency": "inactive"},
      {"smiles": "O=C(c1ccc2c3n(nc2c1)-c1ccccc1CO3)N1CCCCC1", "Potency": "inconclusive [inhibitor, partial curve]"},
      {"smiles": "S=C(NCCc1ccccc1)N/N=C/c1c(Cl)cccc1Cl", "Potency": "inactive"},
      {"smiles": "Cc1occc1C(=O)N1CCN(C(c2ccccc2)c2ccccc2)CC1", "Potency": "inactive"},
      {"smiles": "CCc1c(C)c2c(C)nn(-c3ccccc3)c2oc1=O", "Potency": "inconclusive [inhibitor, single point]"},
      {"smiles": "CCOc1ccc(S(=O)(=O)/N=C(\\N)c2ccccc2)cc1", "Potency": "inconclusive [inhibitor, full curve, poor fit]"},
      {"smiles": "O=C(Nc1ccc(Cl)c(Cl)c1)C1C2C=CC3(O2)C1C(=O)N(CCN1CCCCC1)C3C(=O)NC1CCCCC1", "note": "(stereo not given)", "Potency": "inconclusive [inhibitor, single point]"},
      {"smiles": "O=C(Nc1ccncc1)c1cc(S(=O)(=O)N2CCN(c3ccccc3)CC2)ccc1Cl", "Potency": "inconclusive [inhibitor, single point]"},
      {"smiles": "COc1ccc(Br)cc1/C=N/n1nnnc1N", "Potency": "inconclusive [inhibitor, single point]"},
      {"smiles": "CCc1ccc(OCC(=O)N2CCN(c3ccccc3F)CC2)cc1", "Potency": "inactive"},
      {"smiles": "Cc1ccc(CNc2oc(-c3ccco3)nc2C#N)cc1", "Potency": "inconclusive [inhibitor, single point]"},
      {"smiles": "Cc1ccc(NC(=O)COC(=O)Cc2cccs2)cc1S(=O)(=O)N1CCOCC1", "Potency": "inactive"},
      {"smiles": "CCc1ccc(Nc2nnc(SCC(=O)N(C)CC(=O)Nc3ccccc3CC)s2)cc1", "Potency": "inconclusive [inhibitor, single point]"},
      {"smiles": "CC(C)=CCN1CCN(Cc2cnc(N3CCCC3)s2)CC1CCO", "note": "(stereo not given)", "Potency": "inactive"},
      {"smiles": "O=C(Nc1nc2ccc(Cl)cc2s1)[C@@H]1CCCN1C(=O)c1cccs1", "Potency": "inconclusive [inhibitor, single point]"},
      {"smiles": "CCOC(=O)C1=NN(c2ccccc2)C(=O)/C1=C\\c1ccc(N(C)C)cc1", "Potency": "inactive"},
      {"smiles": "Cc1ccc(C(=O)N/N=C/c2cc(C)n(-c3ccc(Br)cc3)c2C)cc1[N+](=O)[O-]", "Potency": "active: 20 µM"},
      {"smiles": "CCS(=O)(=O)N1N=C(c2cccs2)CC1c1cc2cc(C)ccc2nc1Cl", "note": "(stereo not given)", "Potency": "inconclusive [inhibitor, single point]"},
      {"smiles": "CCN1/C(=C/c2cc[n+](C)cc2)C=Cc2cc(C)ccc21", "Potency": "active: 5.01 µM"},
      {"smiles": "O=C(Nc1cccc2c1CCCC2)c1ccccc1F", "Potency": "inactive"},
      {"smiles": "COc1ccc2c(c1)[C@H]1[C@H](CO2)[C@H](c2ccccc2)[C@]2(C)C(=O)Nc3ccc(F)cc3C(=O)N12", "Potency": "inconclusive [inhibitor, single point]"},
      {"smiles": "CN(CCn1ccnc1)Cc1cn(Cc2ccccc2)nc1-c1ccc2c(c1)OCO2", "Potency": "inactive"},
      {"smiles": "Cc1csc(SCC(=O)Nc2sc3c(c2C#N)CCC3)n1", "Potency": "inconclusive [inhibitor, partial curve]"},
      {"smiles": "COc1ccc(OC)c(NC(=O)CSC2=C(C#N)C(c3ccco3)C3=C(CCCC3=O)N2)c1", "note": "(stereo not given)", "Potency": "inconclusive [inhibitor, single point]"},
      {"smiles": "NC(=O)C1CCN(c2ccc3c(c2)S(=O)(=O)c2ccccc2C3=O)CC1", "Potency": "inconclusive [inhibitor, single point]"},
      {"smiles": "CCNC(=S)N1CCN(S(=O)(=O)c2ccc(Cl)s2)CC1", "Potency": "inconclusive [inhibitor, single point]"},
      {"smiles": "O=c1cc(CN2CCN(S(=O)(=O)c3cccc(Cl)c3)CC2)c2ccc(O)cc2o1", "Potency": "inconclusive [inhibitor, single point]"},
      {"smiles": "COc1cc(OC)cc(-c2cc3ccc(F)cc3cn2)c1", "Potency": "inconclusive [inhibitor, single point]"},
      {"smiles": "CCCn1c(N)c(C(=O)CSc2nnc(Cc3cccs3)n2C2CC2)c(=O)n(C)c1=O", "Potency": "inconclusive [inhibitor, partial curve]"},
      {"smiles": "CCc1cccc(C)c1NC(=O)CCCn1c(=O)c2cccn2c2cccnc21", "Potency": "inconclusive [inhibitor, full curve]"},
      {"smiles": "CCOC(=O)CSc1c(-c2cccs2)[nH]c2ccccc12", "Potency": "inconclusive [inhibitor, partial curve, poor fit]"},
      {"smiles": "CCCCCCCNC1=CC(=O)CC(c2ccccc2)C1", "note": "(stereo not given)", "Potency": "inconclusive [inhibitor, single point]"},
      {"smiles": "COc1ccc(C(=O)Oc2ccc3c(c2)OCO3)cc1OC", "Potency": "inconclusive [inhibitor, single point]"},
      {"smiles": "COc1cc(C(=O)NCCCN(C)C)ccc1OCC(=O)Nc1cccc(C(F)(F)F)c1", "Potency": "inconclusive [inhibitor, partial curve]"},
      {"smiles": "COc1ccc(-c2cc(-c3ccc(N)cc3)nc(N)c2C#N)cc1OC", "Potency": "inconclusive [inhibitor, single point]"},
      {"smiles": "Fc1cccc(CCN2CCNC[C@@H]2Cc2ccccc2)c1", "Potency": "inconclusive [inhibitor, single point]"},
      {"smiles": "COc1ccc(NC(=O)c2ccc(F)cc2)cc1S(=O)(=O)Nc1cc(C)ccc1Br", "Potency": "inconclusive [inhibitor, single point]"},
      {"smiles": "CC(=Nc1ccc(C)cc1)c1sc2ccccc2c1O", "Potency": "active: 12.6 µM"},
      {"smiles": "COC(=O)c1ccc(NC(=O)CSc2nnc(COc3ccc4c(c3)CCCC4)o2)cc1", "Potency": "inactive"},
      {"smiles": "COCCNC(=O)/C(C#N)=C/c1ccc(OC(=O)c2cccs2)c(OC)c1", "Potency": "inactive"},
      {"smiles": "Cc1ccc(NC(=O)c2cnccn2)cc1", "Potency": "inconclusive [inhibitor, single point]"}
    ]}
  ]
}
